# Several values for one entry are separate records, joined by “and”; a condition that tells them apart may be missing. Equal values may be shown once. The campaign covered roughly 390,000 compounds. About 1,400 (0.36%) were called active. Inconclusive means that the source gave no clear call. Such entries were picked first, then a sample of the others. The call rests on the fitted dose curve; in most records, active means well fitted inhibition curve with a large enough effect; inconclusive means small, poorly fitted or top-dose-only effect; inactive means no such curve, though single readings can be large or run the other way. Potencies beside an inconclusive call are fits to weak or partial responses and may not hold up.
# Target: Flap endonuclease 1 (Homo sapiens) (UniProt P39748)
# Chain of UniProt P39748 (P39748 whole entry, looked up): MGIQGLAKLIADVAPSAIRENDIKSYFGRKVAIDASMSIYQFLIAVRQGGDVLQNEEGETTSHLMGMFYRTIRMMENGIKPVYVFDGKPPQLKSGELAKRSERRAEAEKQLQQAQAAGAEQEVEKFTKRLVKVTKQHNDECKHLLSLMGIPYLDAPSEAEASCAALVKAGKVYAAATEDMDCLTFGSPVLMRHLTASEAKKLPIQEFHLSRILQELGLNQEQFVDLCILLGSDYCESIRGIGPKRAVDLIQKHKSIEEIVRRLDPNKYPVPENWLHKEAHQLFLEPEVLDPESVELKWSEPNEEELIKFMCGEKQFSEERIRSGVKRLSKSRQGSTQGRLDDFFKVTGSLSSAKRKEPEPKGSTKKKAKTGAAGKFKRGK
# Test: qHTS Assay for the Inhibitors of Human Flap endonuclease 1 (FEN1). Further: nearly all actives have a fitted effect of over 65% in size.
# Details: Recombinant FEN1 flap cleavage, fluorescence, 15 min; series mostly up to 114 µM; activity change, negative = inhibition: at the top concentration
# How it was run: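 With each library titrated from low to high concentration, compounds met 10 nM FEN1 for 15 min at room temperature before 50 nM substrate was added; readings at 0 and 15 min fed four-parameter Hill curve fits.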
# On the % scale 0 is the no-effect control and ±100 the full control effect; potency means the concentration at half of the fitted maximal effect; tags describe the fitted curve by direction and shape.
SMILES,Potency,"activity change, negative = inhibition"
C[n+]1ccc(/C=C/c2ccc(C=S)cc2)c2ccccc21,active: 50.1 µM,
O=C(N/C=C/c1ccco1)NCc1ccccc1,"inconclusive: 56.2 µM [inhibitor, partial curve, poor fit]",
C[C@@H]1C[C@H]2[C@@H]3CCC4=CC(=O)C=C[C@]4(C)[C@@]3(Cl)[C@@H](O)C[C@]2(C)[C@@]1(OC(=O)c1ccco1)C(=O)CCl,"inconclusive: 56.2 µM [inhibitor, partial curve, poor fit]",
O=C(N/N=C/c1oc(O)c2ccccc12)c1ccccc1O,,inactive: -11.1%
CC1=Nc2ccccc2/C1=C/c1sc(=N)n(-c2nccs2)c1O,"inconclusive: 56.2 µM [inhibitor, partial curve, poor fit]",
COc1cc(-c2nc3ccccn3c2Nc2ccccc2C)ccc1O,"inconclusive: 50.1 µM [inhibitor, partial curve, poor fit]",
COc1ccc(Nc2cc(C(=O)NCCCN(C)Cc3ccccc3)c3ccccc3n2)c(OC)c1,"inconclusive: 17.8 µM [inhibitor, partial curve, poor fit]",
COc1ccc(C(=O)/C(C#N)=N/Nc2ccc([N+](=O)[O-])cc2)cc1,"inconclusive: 14.1 µM [inhibitor, full curve]",
COC(=O)/C=C\C(C#N)(C#N)N=Cc1ccc(OC)cc1,,inactive: -2.75%
CC(=O)c1cccc(NC(=O)c2ccc(S(=O)(=O)N3CCCCC3)cc2)c1,,inactive: -9.83%
O=C(CN1C(=O)/C(=C/c2ccccc2F)SC1=S)NC1C=CS(=O)(=O)C1 (stereo unspecified),"inconclusive: 89.1 µM [inhibitor, single point]",
Nc1ccc(N)c(C(=O)O)c1,"inconclusive: 14.1 µM [inhibitor, full curve, poor fit]",
O=c1oc2cc(O)ccc2s1,"inconclusive: 35.5 µM [inhibitor, single point]",
Cc1oc(C(=O)O)cc1COc1cccc2cccnc12,"inconclusive: 44.7 µM [inhibitor, partial curve]",
COc1cc2ncnc(Nc3cccc(Cl)c3)c2cc1OC,"inconclusive: 44.7 µM [inhibitor, partial curve, poor fit] and inconclusive: 29.9 µM [inhibitor, partial curve, poor fit]",
c1ccc(CN2CCc3[nH]c4ccccc4c3C2)cc1,"inconclusive: 89.1 µM [inhibitor, partial curve, poor fit]",
Oc1ccc(Cl)cc1C1C=C(c2ccc3c(c2)OCO3)NC(c2c(F)cccc2Cl)N1 (stereo unspecified),"inconclusive: 56.2 µM [inhibitor, partial curve, poor fit]",
COc1cc2c(cc1OC)C(COc1ccc3c(C)cc(=O)oc3c1)N(C(=O)c1cccc(OC)c1OC)CC2 (stereo unspecified),,inactive: -1.37%
CCNC(=S)N(CCc1c(C)[nH]c2ccc(C)cc12)Cc1cc(OC)c(OC)c(OC)c1,"inconclusive: 89.1 µM [inhibitor, partial curve, poor fit]",
COc1ccc(C(=O)N/N=C/c2ccc(OC(=O)c3cccc4ccccc34)c([N+](=O)[O-])c2)cc1,,inactive: -2.38%
Cn1c(-c2ccc(Cl)cc2)cnc1NCc1cc2c(cc1[N+](=O)[O-])OCO2,"inconclusive: 89.1 µM [inhibitor, single point]",

SMILES,Potency,"activity change, negative = inhibition"
O=C(Nc1ccccc1)c1cc(-n2cnnc2)ccc1Cl,,inactive: -3.16%
COc1ccc(NC(=S)c2ccc3ccccc3n2)cc1,,inactive: -2.04%
Oc1ccc(/C=C/c2nc(-c3ccccc3O)n(-c3ccccc3)n2)c(O)c1,,inactive: -8.95%
COc1cccc(NC(=O)Nc2cccn(Cc3ccc(C)cc3)c2=O)c1,"inconclusive: 22.4 µM [inhibitor, partial curve, poor fit]",
COc1cc(/C=C2\SC(=Nc3ccccc3)N(CCc3c[nH]c4ccccc34)C2=O)ccc1OC(C)C(=O)O (stereo unspecified),"inconclusive: 79.4 µM [inhibitor, partial curve]",
O=C1N/C(=N\S(=O)(=O)c2ccccc2)S/C1=C\c1cc([N+](=O)[O-])ccc1O,"inconclusive: 79.4 µM [inhibitor, single point]",
COCCn1c(C)cc(C2=NNC(=Nc3ccccc3)SC2)c1C,,inactive: 19.6%
COc1cc(NC(=O)c2cc3sccc3n2C)cc(OC)c1,"inconclusive: 89.1 µM [inhibitor, partial curve, poor fit]",
CCOC(=O)c1ccc2c(c1)C1C=CCC1C(C(=O)OCC)N2 (stereo unspecified),"inconclusive: 89.1 µM [inhibitor, partial curve, poor fit]",
Cc1ccc(NC(=O)c2c(C)oc3ncn(C)c(=O)c23)cc1F,,inactive: -9.58%
CN1/C(=C\C(=O)COC(=O)Cn2nnc(-c3ccccc3)n2)C(C)(C)c2ccccc21,"inconclusive: 56.2 µM [inhibitor, partial curve]",
COc1ccc(S(=O)(=O)c2c(N)n(Cc3ccco3)c3nc4ccccc4nc23)cc1,"inconclusive: 79.4 µM [inhibitor, partial curve, poor fit]",
O=C(CSc1nc2cc(Cl)ccc2o1)c1cccs1,"inconclusive: 89.1 µM [inhibitor, partial curve, poor fit]",
Cc1ccc(NC(=O)c2ccccc2)cc1,,inactive: 0.828%
Cc1cc(/C=C2\C(=O)NN(c3ccccc3)C2=O)c(C)n1-c1ccccc1O,,inactive: 1.68%
Cc1cc(N/N=C/c2ccc(O)cc2)c2cccc(C)c2n1,"inconclusive: 15.8 µM [inhibitor, full curve, poor fit]",
CC1CCCN(S(=O)(=O)c2ccc3[nH]c4c(c3c2)CCCC4)C1 (stereo unspecified),"inconclusive: 50.1 µM [inhibitor, partial curve, poor fit]",
O=C(NCC(c1ccc2c(c1)OCO2)N1CCN(c2ccccc2)CC1)C(=O)Nc1ccc(F)cc1 (stereo unspecified),,inactive: -11%
Cc1cccc(NC(=O)CN2C(=O)N/C(=C\c3ccc(-c4cccc(C(=O)O)c4)o3)C2=O)c1,"inconclusive: 31.6 µM [inhibitor, full curve]",
COc1cc(/C=N/Nc2nc(-c3ccc(S(=O)(=O)N(C)C)cc3)cs2)ccc1O,"inconclusive: 79.4 µM [inhibitor, partial curve, poor fit]",

# — PubChem BioAssay AID588795 (National Center for Advancing Translational Sciences (NCATS), 2011)
